# Experimental data: the supplement of paper PMC4604168 (melanoma cell lines)
# This is one part of the list. Many values rest on one well or one pass, so single values are uncertain.
# Tested on: SkMel30
# Experiment: cell count relative to DMSO control; melanoma cells; higher = more viable cells
# Details: library dose: low library concentration; 72 h
# 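Note: cell number obtained by counting DAPI-stained nuclei in high-throughput microscope images with image analysis software, screen run in 1,536-well plates.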
row,Compound,cell count [%]
1,"COc1ccc(C2=N[C@@H](c3ccc(Cl)cc3)[C@@H](c3ccc(Cl)cc3)N2C(=O)N2CCNC(=O)C2)c(OC(C)C)c1 [Nutlin-3] + CN(NC(=O)CC(=O)NN(C)C(=S)c1ccccc1)C(=S)c1ccccc1 [STA4783] (first compound 0.1 µM, partner dose 0.006 µM)",103
2,"Cc1cc(Nc2cc(N3CCN(C)CC3)nc(/C=C/c3ccccc3)n2)n[nH]1 + COc1ccc(-c2ccc3c(N4CCOCC4)nc(N4C[C@@H](C)O[C@@H](C)C4)nc3n2)cc1CO [KU0063794] (first compound 0.04 µM, partner dose 0.02 µM)",81.9
3,"Cn1c(=O)n(-c2ccc(C(C)(C)C#N)cc2)c2c3cc(-c4cnc5ccccc5c4)ccc3ncc21 + C[C@@H]1CCN(C(=O)CC#N)C[C@@H]1N(C)c1ncnc2[nH]ccc12 [CP690550] (first compound 0.004 µM, partner dose 1 µM)",79.5
4,"Cc1cn(-c2cc(NC(=O)c3ccc(C)c(Nc4nccc(-c5cccnc5)n4)c3)cc(C(F)(F)F)c2)cn1 [nilotinib] + C[C@@H]1CCN(C(=O)CC#N)C[C@@H]1N(C)c1ncnc2[nH]ccc12 [CP690550] (first compound 0.2 µM, partner dose 1 µM)",56.5
5,"Cn1c(=O)n(-c2ccc(C(C)(C)C#N)cc2)c2c3cc(-c4cnc5ccccc5c4)ccc3ncc21 + NC(=O)Nc1cc(-c2cccc(F)c2)sc1C(=O)N[C@H]1CCCNC1 [AZD7762] (first compound 0.004 µM, partner dose 0.02 µM)",98.2

# Tested on: SkMel5
# Experiment: as above
# Details: library dose: low library concentration; 72 h
row,Compound,cell count [%]
1,"CC(C)C[C@H](NC(=O)[C@H](Cc1ccccc1)NC(=O)c1cnccn1)B(O)O [Bortezomib] + O=c1cc(-c2cccc3c2Sc2ccccc2S3)oc(N2CCOCC2)c1 [KU55933] (first compound 0.001 µM, partner dose 1 µM)",101
2,"COc1ccc(C2=N[C@@H](c3ccc(Cl)cc3)[C@@H](c3ccc(Cl)cc3)N2C(=O)N2CCNC(=O)C2)c(OC(C)C)c1 [Nutlin-3] + CN(C)S(=O)(=O)c1ccc2c(c1)/C(=C/c1cc3c([nH]1)CCCC3)C(=O)N2 [SU6656] (first compound 0.1 µM, partner dose 0.4 µM)",89.8
3,"Cc1cc(Nc2cc(N3CCN(C)CC3)nc(/C=C/c3ccccc3)n2)n[nH]1 + CCc1ccc(CCOc2ccc(CC3SC(=O)NC3=O)cc2)nc1 [pioglitazone] (first compound 0.04 µM, partner dose 2 µM)",92.5
4,"Cn1c(=O)n(-c2ccc(C(C)(C)C#N)cc2)c2c3cc(-c4cnc5ccccc5c4)ccc3ncc21 + O=C(Nc1ccccc1)c1cc([N+](=O)[O-])ccc1Cl [GW9662] (first compound 0.004 µM, partner dose 2 µM)",114
5,"Cc1cn(-c2cc(NC(=O)c3ccc(C)c(Nc4nccc(-c5cccnc5)n4)c3)cc(C(F)(F)F)c2)cn1 [nilotinib] + COc1cc2c(Oc3ccc4[nH]c(C)cc4c3F)ncnc2cc1OCCCN1CCCC1 [cediranib] (first compound 0.2 µM, partner dose 0.4 µM)",85.3
6,"Cc1cc(Nc2cc(N3CCN(C)CC3)nc(/C=C/c3ccccc3)n2)n[nH]1 + OCCn1cc(-c2cnc3nnn(Cc4ccc5ncccc5c4)c3n2)cn1 [PF04217903] (first compound 0.04 µM, partner dose 1 µM)",94.2
7,"CC(C)C[C@H](NC(=O)[C@H](Cc1ccccc1)NC(=O)c1cnccn1)B(O)O [Bortezomib] + NCC(=O)Nc1ccc(-n2nc(C(F)(F)F)cc2-c2ccc3c(ccc4ccccc43)c2)cc1 [OSU03012] (first compound 0.001 µM, partner dose 1 µM)",91.4
8,"Cn1c(=O)n(-c2ccc(C(C)(C)C#N)cc2)c2c3cc(-c4cnc5ccccc5c4)ccc3ncc21 + COc1cc(Nc2ncc(F)c(Nc3ccc4c(n3)NC(=O)C(C)(C)O4)n2)cc(OC)c1OC [Tamatinib] (first compound 0.004 µM, partner dose 0.4 µM)",85.1
9,"COc1ccc(C2=N[C@@H](c3ccc(Cl)cc3)[C@@H](c3ccc(Cl)cc3)N2C(=O)N2CCNC(=O)C2)c(OC(C)C)c1 [Nutlin-3] + CCN(CC)CCCCNc1ncc2cc(-c3cc(OC)cc(OC)c3)c(NC(=O)NC(C)(C)C)nc2n1 [PD173074] (first compound 0.1 µM, partner dose 0.1 µM)",80
10,"CC(C)C[C@H](NC(=O)[C@H](Cc1ccccc1)NC(=O)c1cnccn1)B(O)O [Bortezomib] + CN(C)S(=O)(=O)c1ccc2c(c1)/C(=C/c1cc3c([nH]1)CCCC3)C(=O)N2 [SU6656] (first compound 0.001 µM, partner dose 0.4 µM)",86.5
11,"Cc1cn(-c2cc(NC(=O)c3ccc(C)c(Nc4nccc(-c5cccnc5)n4)c3)cc(C(F)(F)F)c2)cn1 [nilotinib] + COc1ccc(COc2ccc(Cc3cnc(N)nc3N)cc2OC)cc1 [GW2580] (first compound 0.2 µM, partner dose 1 µM)",98.6
12,"CC(C)C[C@H](NC(=O)[C@H](Cc1ccccc1)NC(=O)c1cnccn1)B(O)O [Bortezomib] + Oc1cc(-c2nc(-c3ccccc3)[nH]c2-c2ccncc2)ccc1Cl [L779450] (first compound 0.001 µM, partner dose 0.2 µM)",124
13,"CC(C)C[C@H](NC(=O)[C@H](Cc1ccccc1)NC(=O)c1cnccn1)B(O)O [Bortezomib] + Cc1cc(N2CCOCC2)cc2[nH]c(-c3c(NC[C@@H](O)c4cccc(Cl)c4)cc[nH]c3=O)nc12 [BMS536924] (first compound 0.001 µM, partner dose 0.2 µM)",92.9
14,"Cn1c(=O)n(-c2ccc(C(C)(C)C#N)cc2)c2c3cc(-c4cnc5ccccc5c4)ccc3ncc21 + COc1cc2c(Oc3ccc4[nH]c(C)cc4c3F)ncnc2cc1OCCCN1CCCC1 [cediranib] (first compound 0.004 µM, partner dose 0.4 µM)",115
15,"Cc1cn(-c2cc(NC(=O)c3ccc(C)c(Nc4nccc(-c5cccnc5)n4)c3)cc(C(F)(F)F)c2)cn1 [nilotinib] + O=C1NC(=O)/C(=C/c2ccc(-c3ccc(F)cc3O)o2)S1 [AS252424] (first compound 0.2 µM, partner dose 1 µM)",112
16,"CC(C)C[C@H](NC(=O)[C@H](Cc1ccccc1)NC(=O)c1cnccn1)B(O)O [Bortezomib] + Cn1cc(/C=C2\C(=O)Nc3cccnc32)c2ccccc21 [GW441756] (first compound 0.001 µM, partner dose 0.4 µM)",85.3
17,"Cc1cc(Nc2cc(N3CCN(C)CC3)nc(/C=C/c3ccccc3)n2)n[nH]1 + COc1ccc(COc2ccc(Cc3cnc(N)nc3N)cc2OC)cc1 [GW2580] (first compound 0.04 µM, partner dose 1 µM)",100
18,"Cc1cn(-c2cc(NC(=O)c3ccc(C)c(Nc4nccc(-c5cccnc5)n4)c3)cc(C(F)(F)F)c2)cn1 [nilotinib] + COc1cc(N2CCC(N3CCN(C)CC3)CC2)ccc1Nc1ncc(Cl)c(Nc2ccccc2S(=O)(=O)C(C)C)n1 [NVP-TAE684] (first compound 0.2 µM, partner dose 0.08 µM)",86
19,"CC(C)C[C@H](NC(=O)[C@H](Cc1ccccc1)NC(=O)c1cnccn1)B(O)O [Bortezomib] + O=C1NC(=O)/C(=C/c2ccc(-c3ccc(F)cc3O)o2)S1 [AS252424] (first compound 0.001 µM, partner dose 1 µM)",94
20,"Cc1cc(Nc2cc(N3CCN(C)CC3)nc(/C=C/c3ccccc3)n2)n[nH]1 + CCCCCCCCCCCC1=C(O)C(=O)C=C(O)C1=O [Embelin] (first compound 0.04 µM, partner dose 1.2 µM)",108
21,"Cn1c(=O)n(-c2ccc(C(C)(C)C#N)cc2)c2c3cc(-c4cnc5ccccc5c4)ccc3ncc21 + Cc1cc(N2CCOCC2)cc2[nH]c(-c3c(NC[C@@H](O)c4cccc(Cl)c4)cc[nH]c3=O)nc12 [BMS536924] (first compound 0.004 µM, partner dose 0.2 µM)",110
22,"Cc1cc(Nc2cc(N3CCN(C)CC3)nc(/C=C/c3ccccc3)n2)n[nH]1 + C=CCn1c(=O)c2cnc(Nc3ccc(N4CCN(C)CC4)cc3)nc2n1-c1cccc(C(C)(C)O)n1 [MK1775] (first compound 0.04 µM, partner dose 0.02 µM)",97.9
23,"CC(C)C[C@H](NC(=O)[C@H](Cc1ccccc1)NC(=O)c1cnccn1)B(O)O [Bortezomib] + COC(=O)c1sccc1S(=O)(=O)Nc1ccc(Nc2ccccc2)cc1OC [GSK0660] (first compound 0.001 µM, partner dose 1 µM)",99.7
24,"Cc1cn(-c2cc(NC(=O)c3ccc(C)c(Nc4nccc(-c5cccnc5)n4)c3)cc(C(F)(F)F)c2)cn1 [nilotinib] + O=C(Nc1ccccc1)c1cc([N+](=O)[O-])ccc1Cl [GW9662] (first compound 0.2 µM, partner dose 2 µM)",91
25,"CC(C)C[C@H](NC(=O)[C@H](Cc1ccccc1)NC(=O)c1cnccn1)B(O)O [Bortezomib] + C=CCn1c(=O)c2cnc(Nc3ccc(N4CCN(C)CC4)cc3)nc2n1-c1cccc(C(C)(C)O)n1 [MK1775] (first compound 0.001 µM, partner dose 0.02 µM)",95.8
